Data reported in PubChem BioAssay AID488969 (Vanderbilt High Throughput Screening Facility, 2010).
Over roughly 110,000 compounds, “z-score” has its median near -0.1; the highest 2% begin near 2. Some of the results follow.

Biological target: Metabotropic glutamate receptor 8 (Rattus norvegicus) (UniProt P70579)
Assay: rat mGluR8 modulators via GIRK flux, primary screen, cell-based, thallium flux, HTS (AID 488969)
Conditions: HEK293 rat mGluR8, GIRK (G protein-gated inwardly rectifying potassium channel) thallium flux, FluoZin2; at 10 µM; stronger effect = higher value; submaximal glutamate (EC20) added with thallium

UniProt P70579, sequence (P70579 whole entry, looked up): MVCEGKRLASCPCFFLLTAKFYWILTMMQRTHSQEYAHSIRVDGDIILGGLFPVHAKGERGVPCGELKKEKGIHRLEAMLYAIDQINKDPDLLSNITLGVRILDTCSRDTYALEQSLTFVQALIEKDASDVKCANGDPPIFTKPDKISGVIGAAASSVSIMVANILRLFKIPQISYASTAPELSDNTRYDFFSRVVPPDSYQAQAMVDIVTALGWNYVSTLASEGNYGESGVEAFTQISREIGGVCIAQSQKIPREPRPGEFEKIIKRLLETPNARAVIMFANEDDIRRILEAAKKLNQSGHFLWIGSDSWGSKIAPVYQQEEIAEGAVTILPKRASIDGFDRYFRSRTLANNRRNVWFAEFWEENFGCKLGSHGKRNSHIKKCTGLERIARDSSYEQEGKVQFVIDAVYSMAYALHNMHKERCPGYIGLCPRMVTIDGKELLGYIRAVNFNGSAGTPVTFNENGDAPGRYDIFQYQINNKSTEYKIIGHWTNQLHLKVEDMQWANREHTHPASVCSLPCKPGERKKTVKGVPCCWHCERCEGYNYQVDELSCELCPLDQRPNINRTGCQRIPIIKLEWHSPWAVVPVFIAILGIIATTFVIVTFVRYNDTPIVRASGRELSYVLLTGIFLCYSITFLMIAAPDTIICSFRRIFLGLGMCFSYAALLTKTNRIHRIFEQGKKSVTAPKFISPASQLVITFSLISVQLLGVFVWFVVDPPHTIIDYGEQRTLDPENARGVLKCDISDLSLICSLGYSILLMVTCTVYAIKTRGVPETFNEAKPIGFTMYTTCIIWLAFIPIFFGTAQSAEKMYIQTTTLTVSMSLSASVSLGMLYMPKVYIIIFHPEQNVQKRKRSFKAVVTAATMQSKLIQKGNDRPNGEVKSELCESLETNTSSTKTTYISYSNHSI

Question: `Cc1c(Br)c(C(F)(F)F)nn1CC(=O)N1CCCC1` was tested. Which z-score did it give?
Answer: -0.485

Question: How did the z-score turn out when `Cn1c(NC(=O)c2cccs2)cc(=O)n(C)c1=O` was run?
Answer: -0.59

Question: How did the z-score turn out when `Cc1occc1C(=O)Nc1ccc(Br)cc1F` was run?
Answer: 0.0742

Question: How did the z-score turn out when `CCc1cc2cc(C(=O)Nc3ccccc3F)sc2s1` was run?
Answer: 0.285

Question: `CC(=O)c1cc2c(cc1NC(=O)CCNC(=O)c1ccccc1Cl)OCO2` was tested. Which z-score did it give?
Answer: -0.212

Question: `Cc1nn(Cc2ccc(Cl)c(Cl)c2)c(C)c1NC(=O)c1cn(-c2ccccc2)nc1-c1ccccc1` was tested. Which z-score did it give?
Answer: -0.043

Question: `CCCC1(CCC)NC(=O)N(CC(=O)N2CCN(C(=O)c3ccco3)CC2)C1=O` was tested. Which z-score did it give?
Answer: -0.204

Question: For `Cc1ccc(S(=O)(=O)c2c(C)nn(C(C)(C)C)c2OC(=O)C(C)(C)C)cc1`, which z-score is on record?
Answer: -0.0785

Question: Which z-score does the source give for `O=C(OCc1ccccc1)/C(=C/c1cccc2ccccc12)NC(=O)c1ccccc1` here?
Answer: 0.00663

Question: How did the z-score turn out when `O=C(NCCc1ccccc1)c1cnc2ccccn2c1=O` was run?
Answer: -0.0945

Question: How did the z-score turn out when `CC(C)(C)C(=O)Nc1cccc(-c2nnc(-c3cccc(NC(=O)C(C)(C)C)c3)o2)c1` was run?
Answer: 0.0214

Question: With `O=C1CCC(C(=O)Nc2cccc(C(F)(F)F)c2)N1` (stereo not given) as the compound, how does the z-score read?
Answer: -0.0874

Question: Which z-score does the source give for `CSc1ccc(/C=C/C(=O)c2ccc(NC(=O)C(C)C)cc2)cc1` here?
Answer: -0.0216

Question: For `CCOC(=O)C(C)c1nc2ccccc2[nH]c1=O` (stereo not given), which z-score is on record?
Answer: 0.169

Question: With `CCOc1ccc(OCC)c(NC(=O)C2CCN(S(=O)(=O)c3cccc4nonc34)CC2)c1` as the compound, how does the z-score read?
Answer: 0.0264

Question: How did the z-score turn out when `O=C(Cn1c(=O)n(-c2ccccc2)c(=O)c2sccc21)N1CCCC1` was run?
Answer: -0.24

Question: How did the z-score turn out when `Cn1c(=O)c2c(c3ccccc31)OC(C)(C)CC2` was run?
Answer: -0.136

Question: Which z-score does the source give for `c1ccc(-c2csc(Nc3ccc4c(c3)OCCO4)n2)cc1` here?
Answer: -0.448

Question: `COc1ccc(S(=O)(=O)N[C@@H](C)C(=O)OCC(=O)Nc2cc3oc4ccccc4c3cc2OC)cc1` was tested. Which z-score did it give?
Answer: -0.185

Question: With `Cc1ccc(Nc2nc(C(=O)N3CCC(C(=O)NCCN4CCOCC4)CC3)cs2)cc1` as the compound, how does the z-score read?
Answer: 0.0131

Question: `Cc1cc(C)cc(OCC(=O)Nc2cccc(-c3nnc(-c4ccco4)o3)c2)c1` was tested. Which z-score did it give?
Answer: -0.742

Question: `Cc1ccc(SCc2[nH]nc3c2C2(C(=O)Nc4ccc(F)cc42)C(C#N)=C(N)O3)cc1` (stereo not given) was tested. Which z-score did it give?
Answer: 0.575

Question: Which z-score does the source give for `Cc1ccc(N(C(=O)C(F)(F)F)C(C(=O)NC2CCCCC2)c2ccncc2)cc1C` (stereo not given) here?
Answer: 0.363

Question: For `O=C(Cn1c(O)c(/C=C2\C=Nc3ccc(Br)cc32)sc1=O)N1CCCC1`, which z-score is on record?
Answer: 0.239

Question: How did the z-score turn out when `Clc1ccc(-c2noc(CCCOc3ccccc3)n2)cc1` was run?
Answer: 0.161

Question: `CCCNS(=O)(=O)c1cccc(C(=O)NC2CCCc3ccccc32)c1` (stereo not given) was tested. Which z-score did it give?
Answer: -0.314

Question: Which z-score does the source give for `N#CC1=C(N)Oc2n[nH]c(-c3ccccc3)c2C1c1ccsc1` (stereo not given) here?
Answer: 0.797

Question: For `O=C(NNc1c2ccccc2nc2ccccc12)c1cccc(O)c1`, which z-score is on record?
Answer: -0.199

Question: How did the z-score turn out when `COC(=O)c1[nH]c2ccc(F)cc2c1NC(=O)CCN1CCN(C(=O)c2ccco2)CC1` was run?
Answer: 0.844

Question: Which z-score does the source give for `N#Cc1nc(-c2ccccc2F)oc1NCc1ccccc1` here?
Answer: -0.568

Question: How did the z-score turn out when `CC1=CC(C)(C)N2C(=O)C3(C(C#N)=C(N)OC4=C3C(=O)CC(C)(C)C4)c3c(C)c(C)cc1c32` (stereo not given) was run?
Answer: 0.0499

Question: For `Cc1ccc(N/C(CSC(N)=O)=N/S(=O)(=O)c2ccccc2)cc1`, which z-score is on record?
Answer: 0.33

Question: With `CCOC(=O)/C=c1\s/c(=C(\C#N)C(=O)OCC)n(-c2ccccc2)c1=O` as the compound, how does the z-score read?
Answer: 1.9

Question: For `CCOC(=O)C1=C(C)NC(=O)NC1c1ccc(OCC(=O)N2CCCCC2)cc1` (stereo not given), which z-score is on record?
Answer: -0.169

Question: Which z-score does the source give for `CCOc1ccc(/C=N/N(C)c2ccccc2)cc1OC` here?
Answer: -0.108

Question: Which z-score does the source give for `O=C(CSc1nnc(-c2ccco2)n1-c1ccccc1)NCc1ccco1` here?
Answer: -0.193

Question: How did the z-score turn out when `CC(=O)N(/N=C1\Sc2ccccc2C1=O)c1cccc(C)c1` was run?
Answer: -0.703

Question: `CCc1ccc2c(c1)/C(=N/OC)C(=O)N2` was tested. Which z-score did it give?
Answer: -0.145

Question: How did the z-score turn out when `COCCn1nnnc1C(c1cc2cc(OC)ccc2[nH]c1=O)N1CCC(Cc2ccccc2)CC1` (stereo not given) was run?
Answer: 1.14

Question: For `COc1ccc(NC(=O)c2cccnc2C(=O)O)c(OC)c1`, which z-score is on record?
Answer: 0.0809

Question: With `COc1cc(C(c2sc3nc(C)nn3c2O)N2CCOCC2)cc(OC)c1OC` (stereo not given) as the compound, how does the z-score read?
Answer: 0.504

Question: How did the z-score turn out when `COc1ccc(Cn2nnnc2C(c2cccs2)N2CCN(c3ccccc3)CC2)cc1` (stereo not given) was run?
Answer: -0.248

Question: `Cc1ccc(NC(=O)c2c(C(F)(F)F)nn(C)c2Cl)cc1C` was tested. Which z-score did it give?
Answer: -0.0324

Question: For `Cn1c(Cl)nc2ccccc21`, which z-score is on record?
Answer: 0.0039

Question: `O=C(Nc1ccc(S(=O)(=O)Nc2ncccn2)cc1)c1ccco1` was tested. Which z-score did it give?
Answer: -0.0592

Question: Which z-score does the source give for `COc1ccc(COC(=O)N/N=C(\C)CC(=O)Nc2ccc(Cl)cc2)cc1` here?
Answer: -0.318

Question: Which z-score does the source give for `CC12CCC(=O)N1c1ccccc1C(=O)N2c1ccccc1` (stereo not given) here?
Answer: -0.19

Question: How did the z-score turn out when `CCNC(=O)CC1SC(=Nc2ccc(C)cc2)NC1=O` (stereo not given) was run?
Answer: -0.465

Question: For `O=S(=O)(c1ccc(Br)s1)N1CCN(c2ccccc2)CC1`, which z-score is on record?
Answer: -0.407

Question: For `O=C(Nc1nnc(C2CCCCC2)s1)c1ccc(Br)s1`, which z-score is on record?
Answer: -0.204

Question: With `O=[N+]([O-])c1cc2c(c(CSc3nnnn3-c3ccc(O)cc3)c1)OCOC2` as the compound, how does the z-score read?
Answer: -0.166

Question: With `O=C(c1ccccc1)[C@@H]1[C@@H](C(=O)c2ccc(F)cc2)[C@@]2(C(=O)Nc3ccccc32)[C@H]2c3ccccc3C=CN12` as the compound, how does the z-score read?
Answer: -0.0419

Question: For `Cc1ccc(S(=O)(=O)n2nc(OC(=O)C3CCCCC3)cc2N)cc1`, which z-score is on record?
Answer: -1.51

Question: For `CCOC(=O)/C(=N\Nc1cccc(Cl)c1)Sc1nnc(-c2ccc(OC)cc2)n1C`, which z-score is on record?
Answer: -0.247

Question: Which z-score does the source give for `COc1ccc(CNCC(O)(c2ccc(Cl)cc2)c2ccc(Cl)cc2)cc1` here?
Answer: -0.78
